Among the data in PMC4242493 are binding signal (normalized occupancy) values, retold here.

This is one part of the list. The list includes weakly bound sequences.

The target in the test is MaxL homodimer (UniProt P61244). Description: universal protein-binding microarray (PBM). To be noted: PBS-based mixture, 10 nM His-tagged protein dimer, 2% milk, 200 ng/uL BSA, 50 ng/uL salmon testes DNA, 0.02% TX-100; detection with Alexa 488 anti-His …; high values mean tight binding; most listed sequences are background and not binding sites; double strand, one strand shown.
Chain of UniProt P61244 (P61244 whole entry): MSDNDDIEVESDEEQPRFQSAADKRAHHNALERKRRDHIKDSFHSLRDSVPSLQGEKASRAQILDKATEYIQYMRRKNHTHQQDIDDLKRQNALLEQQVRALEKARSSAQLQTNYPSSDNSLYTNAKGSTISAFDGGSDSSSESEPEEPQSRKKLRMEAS
As to CCGTGCAC, the binding signal (normalized occupancy) is 0.0816.
As for CAAAGCAA, the binding signal (normalized occupancy) came to 0.0688.
Regarding TTCCCCAA, the binding signal (normalized occupancy) worked out at 0.0732.
CATGGGAG: the binding signal (normalized occupancy) worked out at 0.0855.
On to CGAATCGA, for which the binding signal (normalized occupancy) came out at 0.0744.
ACGGTGTG: the binding signal (normalized occupancy) worked out at 0.0815.
Consider CCGGATGA, for which the binding signal (normalized occupancy) was 0.0724.
Consider AATAGGCT, for which the binding signal (normalized occupancy) came to 0.0725.
Regarding CCTTTCGC, the binding signal (normalized occupancy) turned out to be 0.0714.
Next, GAAGCGTC: 0.0721; ACGATTTG: 0.0757.
For AAGTACTC the value was 0.0685; for ATAATTTC, 0.0762; for GTATAATA, 0.082.
For ATGCGAAT, the binding signal (normalized occupancy) worked out at 0.0776.
In the case of CAATGAGC, the binding signal (normalized occupancy) was 0.074.
Turning to ACATAGAG, the binding signal (normalized occupancy) was 0.0791.
For CTTCATGC the value was 0.0794; for AACTGGGA, 0.0697.
For the sequence AGGCCCAA, the binding signal (normalized occupancy) worked out at 0.0701.
As for GAGGACTC, the binding signal (normalized occupancy) was found to be 0.0713.
For GCGGTTTA the value was 0.0776; for CAACGGTA, 0.0712.
For CTAAAGGA, the binding signal (normalized occupancy) is 0.0683.
On to ACTTAATA, for which the binding signal (normalized occupancy) is 0.0776.
Take CATAGGTC: the binding signal (normalized occupancy) was 0.0768.
In the case of ATCACGTA, the binding signal (normalized occupancy) was 0.0829.
Take CTGTATGA: the binding signal (normalized occupancy) came to 0.077.
CTCCCTTC: the binding signal (normalized occupancy) stood at 0.0744.
CAAGTCAG: the binding signal (normalized occupancy) is 0.0704.
Next, ATATCGCC: 0.0753; GACATTCA: 0.0822; GTCGTAAC: 0.0754.
For the sequence GCGCTGGA, the binding signal (normalized occupancy) was determined as 0.07.
For the sequence AGTCGGGA, the binding signal (normalized occupancy) is 0.0715.
In the case of ACGGTCAA, the binding signal (normalized occupancy) came to 0.0749.
In the case of CTGCGATC, the binding signal (normalized occupancy) turned out to be 0.0754.
Next, AGGTTGTC: 0.0771.
In the case of GCTACCTA, the binding signal (normalized occupancy) worked out at 0.0727.
As for AAATTCTG, the binding signal (normalized occupancy) worked out at 0.0729.
As for GGCGGGAA, the binding signal (normalized occupancy) was 0.0771.
For GTTACGAA the value was 0.0722.
Take CGTCATTC: the binding signal (normalized occupancy) was found to be 0.0738.
Next, CAATTGAG: 0.0714; ACTCCCTA: 0.0788; TAGAATGA: 0.0808.
For the sequence TAGTGTGA, the binding signal (normalized occupancy) was 0.0842.
For CGCCACAG, the binding signal (normalized occupancy) was 0.0708.
For AAAGTCAA the value was 0.0707; for ACCAATAC, 0.0797.
Consider AACACATG, for which the binding signal (normalized occupancy) worked out at 0.138.
As for CAGAAAGA, the binding signal (normalized occupancy) turned out to be 0.0707.
Take AGCCTAAA: the binding signal (normalized occupancy) came to 0.07.
As to CCCTACTC, the binding signal (normalized occupancy) was 0.0779.
Turning to CCAGACGG, the binding signal (normalized occupancy) amounted to 0.0665.
Take GAGATTCA: the binding signal (normalized occupancy) came to 0.0714.
Next, ATGGACTC: 0.0812; CGACCCAG: 0.0675.
As to CGTGAGAA, the binding signal (normalized occupancy) amounted to 0.0788.
On to AAGGCATC, for which the binding signal (normalized occupancy) came out at 0.0702.
ACGGGACG: the binding signal (normalized occupancy) came out at 0.0756.
Turning to CGGGTATA, the binding signal (normalized occupancy) came out at 0.0748.
Consider TAAGGACA, for which the binding signal (normalized occupancy) was 0.075.
Take TAATGGCA: the binding signal (normalized occupancy) is 0.0779.
For the sequence CATGTATA, the binding signal (normalized occupancy) is 0.089.
For GTCGAACA the value was 0.0741; for AAATAAAA, 0.079; for CATGGCTC, 0.09.
For CCACAGAC the value was 0.0741.
Regarding CACCCATC, the binding signal (normalized occupancy) turned out to be 0.0827.
For AATGCCGC, the binding signal (normalized occupancy) came out at 0.0765.
On to CCCTAACA, for which the binding signal (normalized occupancy) amounted to 0.0728.
In the case of AATAAGAG, the binding signal (normalized occupancy) is 0.0738.
Next, GGCAACAA: 0.0717.
Next, AGTGTCCC: 0.0718.
In the case of ATTCCACG, the binding signal (normalized occupancy) worked out at 0.0964.
On to GATTCTGC, for which the binding signal (normalized occupancy) is 0.0697.
Turning to CAAATAGG, the binding signal (normalized occupancy) turned out to be 0.0768.
For TTCCCGAA, the binding signal (normalized occupancy) worked out at 0.0701.
Consider AATCGAAA, for which the binding signal (normalized occupancy) is 0.0785.
On to CCGGGCGA, for which the binding signal (normalized occupancy) was 0.0712.
Next, CGGATACG: 0.0726.
Next, CGCACAGC: 0.0728; CTTACTCA: 0.0702.
In the case of CATGAGCG, the binding signal (normalized occupancy) amounted to 0.0868.
As for GGCTCACC, the binding signal (normalized occupancy) was found to be 0.0732.
Consider GTATGTTA, for which the binding signal (normalized occupancy) was found to be 0.0849.
With GGAAGGGA, the binding signal (normalized occupancy) turned out to be 0.0683.
Next, AAAGCCCT: 0.0675; CCCAAGGA: 0.0711; CCAGGGTC: 0.0678.
In the case of GTGAAAGA, the binding signal (normalized occupancy) was determined as 0.0834.
As to TCGAAACA, the binding signal (normalized occupancy) came out at 0.0722.
Consider GGACCCTA, for which the binding signal (normalized occupancy) was determined as 0.0749.
With ACCGTCTG, the binding signal (normalized occupancy) came out at 0.0693.
On to AGGAGGGA, for which the binding signal (normalized occupancy) came out at 0.0746.
With TCCGATAA, the binding signal (normalized occupancy) was 0.076.
For the sequence ATCTCATA, the binding signal (normalized occupancy) worked out at 0.076.
Consider GAATCAGC, for which the binding signal (normalized occupancy) was 0.0733.
As to ATGAAGAA, the binding signal (normalized occupancy) is 0.0767.
For GGTGTCGA the value was 0.0764; for AAGTTCTA, 0.0746; for CGGCCCCA, 0.0745.
Next, AAACGCAA: 0.0718; GTTTGGTA: 0.0755; ACTCGTAG: 0.0707.
For GCGGATTA, the binding signal (normalized occupancy) came out at 0.0783.
Turning to ACGGCACT, the binding signal (normalized occupancy) is 0.0734.
CTATAAGC: the binding signal (normalized occupancy) is 0.0801.
TAAAAGGA: the binding signal (normalized occupancy) was determined as 0.0684.
GCATTGAC: the binding signal (normalized occupancy) stood at 0.0831.
With GGCCCAGA, the binding signal (normalized occupancy) turned out to be 0.0698.
In the case of TAGATAAA, the binding signal (normalized occupancy) is 0.0755.
Next, AAAGTAGT: 0.073.
Next, CATGGTGG: 0.0938; GTACTAAC: 0.0746; CCGGCGCC: 0.0683.
For ATCCGTAG the value was 0.0735.
Turning to AAGGCGTC, the binding signal (normalized occupancy) stood at 0.0778.
On to ACTCGTCA, for which the binding signal (normalized occupancy) is 0.0793.
Take AGTAGGTA: the binding signal (normalized occupancy) worked out at 0.0741.
With ATGTTGTG, the binding signal (normalized occupancy) stood at 0.0817.
As for AGTCAAGC, the binding signal (normalized occupancy) was determined as 0.0708.
For CAGACGAC the value was 0.0794; for AAGCTGCG, 0.0657; for GCTAGCCC, 0.0715.
For the sequence CCATGTGA, the binding signal (normalized occupancy) came out at 0.154.
Regarding ACACCACG, the binding signal (normalized occupancy) amounted to 0.0983.
As for CGCCCGAG, the binding signal (normalized occupancy) was found to be 0.0641.
For GAATAAAA, the binding signal (normalized occupancy) is 0.0745.
For GAGGGTCC the value was 0.0747; for AAACTAAC, 0.0741.
Take ATGACAGG: the binding signal (normalized occupancy) came out at 0.076.
In the case of CGACCGGA, the binding signal (normalized occupancy) is 0.07.
For CCGATGTA, the binding signal (normalized occupancy) turned out to be 0.0736.
As to CGTTCATC, the binding signal (normalized occupancy) is 0.0768.
In the case of GAACGTGC, the binding signal (normalized occupancy) was 0.0931.
Next, CCATGGGA: 0.0939; CTGCTCTA: 0.0709; CATTATGA: 0.0869.
For GAACTTGC the value was 0.0753; for CAGCCCTG, 0.0675; for AACATAGC, 0.0753.
Next, ATTGAGTC: 0.0771.
In the case of AGCGTAGG, the binding signal (normalized occupancy) is 0.0668.
In the case of GAAAGTAA, the binding signal (normalized occupancy) came out at 0.0685.
With GCTTAATA, the binding signal (normalized occupancy) is 0.0802.
Next, CGACACGA: 0.0818.
For CGGACGTA the value was 0.0687; for ACGCCGAG, 0.0736.
For AATCCGTC, the binding signal (normalized occupancy) was found to be 0.0705.
Next, CTCACCGC: 0.0702; ACAAAACT: 0.0722; GAAAACGA: 0.0726.
AGTGCCAT: the binding signal (normalized occupancy) amounted to 0.0795.
In the case of AGACGTCA, the binding signal (normalized occupancy) is 0.0744.
Regarding AAGCCAAT, the binding signal (normalized occupancy) was determined as 0.075.
In the case of GACGAGCC, the binding signal (normalized occupancy) stood at 0.0666.
On to CCTTGATA, for which the binding signal (normalized occupancy) is 0.0778.
In the case of AACAGGGT, the binding signal (normalized occupancy) turned out to be 0.0754.
For GCTTCAAC, the binding signal (normalized occupancy) was found to be 0.0725.
With TTGGCCAA, the binding signal (normalized occupancy) was 0.0667.
For AGCCTGGG, the binding signal (normalized occupancy) turned out to be 0.0676.
Turning to CGCTGTGC, the binding signal (normalized occupancy) came to 0.0667.
Regarding CCGATCAG, the binding signal (normalized occupancy) amounted to 0.0753.
Consider GTCATAAC, for which the binding signal (normalized occupancy) came to 0.0769.
For GTTGTCGA, the binding signal (normalized occupancy) came to 0.0773.
CTGGTTTC: the binding signal (normalized occupancy) came to 0.0722.
Next, GGTACTGA: 0.0736; TAGCACAA: 0.0756.
With AAGGTCCC, the binding signal (normalized occupancy) came out at 0.0716.
Take CCATTCAG: the binding signal (normalized occupancy) amounted to 0.0765.
